Measured values taken from PubChem BioAssay AID1508623 (National Center for Advancing Translational Sciences (NCATS), 2021).
In all, about 48,000 compounds went through this assay and about 450 (0.94%) were called active. Not shown: some 19% with an inconclusive outcome. The call rests on the fitted dose curve; in most records, active means well fitted inhibition curve with a large enough effect; inconclusive means small, poorly fitted or top-dose-only effect; inactive means no such curve, though single readings can be large or run the other way. The list shows a part of the results.

Assay: Primary qHTS for Identification of Small Molecule Inhibitors of Huntingtin Promoter Activity; further: nearly all actives have a fitted effect of over 50% in size
Conditions: HEK293 HTT promoter firefly luciferase reporter (activity 0% = vehicle and -100% = no light), 24 h; series mostly up to 57.5 µM; activity change, negative = inhibition: at the top concentration
Summary of the method: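 Firefly luciferase signal from promoter-reporter HEK293 cells was scaled between vehicle (0%) and zero RLU (-100%). Compounds were tested at final concentrations of up to 57.5 uM over 24 h at 37 degrees C. PTC124 at 50 uM final served as control inhibitor.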

Activity change, negative = inhibition, inactive:
CCCCN(CC)CCCNC(=O)c1cn(CC)c2ccc(S(=O)(=O)N3CCOCC3)cc2c1=O -9.21%
O=C(COCc1cc(-c2ccco2)on1)Nc1cccc(Cl)c1Cl -3.03%
CCOc1ccccc1-n1nnc(S(=O)(=O)c2ccc(C)cc2)c1N -29.2%
COc1ccc(C2N3CC4(C)CN2CC(c2ccccc2)(C3)C4=O)cc1 (stereo not given) -16.2%
CCOc1ccc(NC(=O)CN2CCN(c3ccc(Cl)cc3)CC2)cc1 -13.3%
COc1ccc(OC)c(CCNC(=O)c2cc3c(=O)n(C)c4ccccc4c3n2C)c1 -21.2%
CCOC(=O)c1cccc(NC(=O)C2CCCN(S(=O)(=O)c3cc(Br)cc4c3N(C(=O)CC)CC4)C2)c1 (stereo not given) -4.85%
COc1ccc(CN(C(=O)Cc2coc3ccc(C)cc23)C2CCS(=O)(=O)C2)cc1 (stereo not given) -8.08%
CCc1cccc(NC(=O)CCN2C(=O)c3ccccc3Sc3ncccc32)c1 -17.3%
Cc1cc(=O)n2nc(N(C)CC(=O)NCc3ccc(Cl)cc3)sc2n1 -4.1%
O=C(NCC1CCN(Cc2ccc(F)cc2)CC1)c1cc2ccc3cccnc3c2[nH]1 -4.21%
COc1cc(Cl)c(C)cc1NC(=O)c1cc2c(s1)-c1c(C)cccc1OC2 -14.1%
Cc1cc(=O)oc2cc(O[C@@H]3SC[C@@H](O)[C@H](O)[C@H]3O)ccc12 13.7%
CCc1nn(CC(=O)N2CCN(c3cccc(C)c3C)CC2)c(=O)c2cc3sccc3n12 -5.73%
CCC(=O)N1CCc2cc(S(=O)(=O)NC(CC(C)C)C(=O)NCc3ccc(C)cc3)ccc21 (stereo not given) -13.9%
Cc1cc2[nH]c(=O)c(=O)[nH]c2cc1S(=O)(=O)Nc1cccc(C(F)(F)F)c1 -4.28%
Cc1sc2ncn(CC(=O)N3CCN(c4ccc(F)cc4)CC3)c(=O)c2c1S(=O)(=O)N1CCN(c2ncccn2)CC1 -9.75%
Cc1ccccc1NC(=O)Nc1cccs1 -5.59%
O=C1c2oc3ccccc3c(=O)c2C(c2cccc(Br)c2)N1c1ccccn1 (stereo not given) -16.5%
CCCCN(C)C(=O)Cn1cnc2sc(C)c(S(=O)(=O)N3CCN(c4ccccc4OC)CC3)c2c1=O -0.423%
CCn1ccnc1CC1COc2ccccc2O1 (stereo not given) 17.4%
CNC(=O)c1ccc(NC(=O)COc2ccc(-c3nn(C)c(=O)c4ccccc34)cc2)cc1 -6.92%
CCOC(=O)c1[nH]c2ccccc2c1NC(=O)c1cc(OCC)c(OCC)c(OCC)c1 -1.25%
Cc1cc(=O)n2nc(N3CCC(C(=O)NCc4ccc(Cl)cc4)CC3)sc2n1 -13.1%
CCOc1ccc(NC(=O)Cn2c(CCC(=O)O)ccc2-c2ccc(C)cc2)cc1 -2.61%
Clc1ccc(Nc2nc(-c3ccccc3)c3cc(Cl)ccc3n2)cc1 -3.77%
COc1cc(NC(=O)CC(C)S(=O)(=O)c2cc3c4c(c2)CCN4C(=O)CC3)cc(OC)c1 (stereo not given) -2.14%
Cc1ccccc1C(=O)Nc1cccc(C(=O)OCc2cc(=O)n3nc(C4CC4)sc3n2)c1 3.01%
COc1ccc(Cn2c(CO)cnc2SCC(=O)NCc2ccco2)cc1 -13.1%
Cc1ccc(C)c(CN2C(=O)c3ccccc3Sc3ccc(C(=O)NCc4ccc5c(c4)OCO5)cc32)c1 -20.7%
COc1cc2nc(SCC(=O)Nc3cccc(C)c3)n3nc(-c4ccccc4)nc3c2cc1OC -1.39%
COc1ccc(NC(=O)c2c(NC(=O)c3cccc(C)c3)sc3c2CCCC3)cc1 -14.4%
Cc1ccc([N+](=O)[O-])cc1S(=O)(=O)N1CCn2cccc2C1c1ccc(F)c(F)c1 (stereo not given) 5.23%
CC(=O)c1cccc(NC(=O)c2ccc3nc(C(C)C)oc3c2)c1 -20.2%
CCOC(=O)c1cc(-c2ccc(OC)cc2)nn1Cc1ccccc1 59.9%
Cc1ccc(CSc2nc3c(c(=O)[nH]2)C(c2cccc(F)c2F)CC(=O)N3)cc1 (stereo not given) -17.4%
COc1ccc(N2CCN(C(=O)c3nn(-c4ccc(C)cc4)c(=O)n(C)c3=O)CC2)cc1 -22%
CC(C)c1ccc(NC(=O)C(Cc2ccccc2)NS(=O)(=O)c2ccc3c(c2)CCC(=O)N3)cc1 (stereo not given) -13%
COc1cccc(CNC(=O)CN(C)S(=O)(=O)c2ccc3c(c2)c(=O)n(C)c(=O)n3C)c1 -9.05%
Cn1nnnc1SCCNCc1ccccc1Cl 6.95%
COc1cc2ncc3c(-c4ccccc4)nn(-c4ccc(C)cc4)c3c2cc1OC -12%
COc1ccc(NC(=O)c2sc3nc[nH]c(=O)c3c2C)cc1OC 7.22%
N#C/C(=C\c1ccc(-c2ccc(C(=O)O)cc2)o1)c1nc2ccccc2[nH]1 38.3%
COc1ccc(Cl)cc1NC(=O)Cn1cc(S(=O)(=O)Cc2cccc(Cl)c2)c2ccccc21 -29.2%
CCc1ccccc1Nc1nn2c(=O)c3ccc(C(=O)NCc4ccccc4Cl)cc3nc2s1 -34.4%
CCCCOc1ccc(C(=O)N(Cc2nc(-c3ccc(Cl)cc3)no2)C(C)C)cc1 -19.9%
CC(C)=CCC/C(C)=C/CO 1.44%
CC(=O)N1CCc2cc(Br)cc(S(=O)(=O)CCC(=O)NCCc3ccc(Cl)cc3)c21 -13.3%
O=C(CCCn1c(=O)c2ccccc2n(Cc2cccc(F)c2)c1=O)NCc1ccccc1Cl 0.473%
CCCCNC(=O)c1sc2ncccc2c1-n1cccc1 1.18%
Cc1cc2oc(C(=O)Nc3c(C)n(C)n(-c4ccccc4)c3=O)cc(=O)c2cc1C -6.32% [at 11.5 µM]
COC(=O)C(CCSC)NC(=O)c1cc2c(n(-c3ccccc3)c1=O)CC(C)(C)CC2=O (stereo not given) 0.795%
CCOC(=O)Cn1c(=O)n(-c2ccc(Cl)cc2)c2nc(-c3ccc(Cl)cc3)nc(C(N)=O)c21 -4.07%
COc1ccc(NC(=O)CN(c2ccc(C)cc2)S(=O)(=O)c2cccs2)cc1 -3.42%
COc1cc(CNc2ccc3[nH]c(=O)[nH]c3c2)cc(Cl)c1OCc1ccc(F)cc1 -12.7%
Cc1ccc2c(=O)cc(C(=O)Nc3nc4ccc(Cl)cc4s3)oc2c1 15.7%
Cc1cccc(C(=O)Nc2ccccc2OCc2cc(=O)n3c(C)csc3n2)c1 1.02%
O=C(Nc1ccc(C(=O)OCc2cc(=O)n3c4c(sc3n2)CCCC4)cc1)c1cccc(F)c1 -5.28%
COc1ccc(CCNc2nc3c(c(=O)n(C)c(=O)n3C)n2Cc2ccccc2Cl)cc1OC -29.5%
O=C(Cn1cc(S(=O)(=O)Cc2ccccc2F)c2ccccc21)NCc1ccccc1 -11.3%
